Our source for the enrichment ratio values is a collection of fitness landscapes (doi:10.1126/science.1257360).

The list shows a part of the results.

B1: PhoQ; a variant is named by its letters at X, in order, P23837 (parent)
chain: MKKLLRLFFPLSLRVRFLLATAAVVLVLSLAYGMVALIGYSVSFDKTTFRLLRGESNLFYTLAKWENNKLHVELPENIDKQSPTMTLIYDENGQLLWAQRDVPWLMKMIQPDWLKSNGFHEIEADVNDTSLLLSGDHSIQQQLQEVREDDDDAEMTHSVAVNVYPATSRMPKLTIVVVDTIPVELKSSYMVWSWFIYVLSANLLLVIPLLWVAAWWSLRPIEALAKEVRELEEHNRELLNPATTRELTSLVRNLNRLLKSERERYDKYRTTLTDLTHSLKTPLXXLQXXLRSLRSEKMSVSDAEPVMLEQISRISQQIGYYLHRASMRGGTLLSRELHPVAPLLDNLTSALNKVYQRKGVNISLDISPEISFVGEQNDFVEVMGNVLDNACKYCLEFVEISARQTDEHLYIVVEDDGPGIPLSKREVIFDRGQRVDTLRPGQGVGLAVAREITEQYEGKIVAGESMLGGARMEVIFGRQHSAPKDE

In this assay the parent is B1. As to the kind of experiment: enrichment ratio after two sorts for PhoP signalling (ratio (wild type AVST 3.29)); higher = more functional. The settings on record: with PhoP (E. coli).
Turning to IWAN, the enrichment ratio was ≤ 0.25.
Turning to TERT, the enrichment ratio was ≤ 0.25.
As for IGWD, the figure is ≤ 0.25; as for QACF, ≤ 0.25; as for NQVH, ≤ 0.25.
With TYYP, the enrichment ratio is ≤ 0.25.
As to DPNF, the enrichment ratio is ≤ 0.25.
On to NSEG, for which the enrichment ratio was ≤ 0.25.
As to GCYR, the enrichment ratio was ≤ 0.25.
Turning to MSMS, the enrichment ratio is ≤ 0.25.
Consider PQHI, for which the enrichment ratio is ≤ 0.25.
As for FLGM, the figure is ≤ 0.25.
To GGCH belongs 5.28; to FEMV, ≤ 0.25.
Turning to DFYD, the enrichment ratio is ≤ 0.25.
As for RNQR, the enrichment ratio was ≤ 0.25.
On to HAWK, for which the enrichment ratio was ≤ 0.25.
In the case of NDGD, the enrichment ratio was ≤ 0.25.
To YHFT belongs ≤ 0.25.
As for KTHQ, the figure is ≤ 0.25; as for PDNG, ≤ 0.25; as for LWPR, 1.03.
WYNR: the enrichment ratio is ≤ 0.25.
On to TSCS, for which the enrichment ratio stood at 14.7.
For the variant VSTW, the enrichment ratio is ≤ 0.25.
Take GNIT: the enrichment ratio is ≤ 0.25.
To HNCC belongs ≤ 0.25; to HEWD, ≤ 0.25; to LKYD, ≤ 0.25.
On to ADPS, for which the enrichment ratio is ≤ 0.25.
For ELEH, the enrichment ratio was ≤ 0.25.
Turning to HDGG, the enrichment ratio is ≤ 0.25.
With LHRF, the enrichment ratio was ≤ 0.25.
As for VEQD, the figure is ≤ 0.25; as for VFMK, ≤ 0.25.
To PKLW belongs ≤ 0.25.
For NREE, the enrichment ratio is ≤ 0.25.
In the case of TTMN, the enrichment ratio is 8.25.
Regarding QFVR, the enrichment ratio was ≤ 0.25.
HKWH: the enrichment ratio is ≤ 0.25.
As to GVVV, the enrichment ratio was ≤ 0.25.
TNYE: the enrichment ratio was ≤ 0.25.
On to PPVR, for which the enrichment ratio is ≤ 0.25.
With TELM, the enrichment ratio came out at 13.8.
Regarding LFPR, the enrichment ratio was ≤ 0.25.
HLGD: the enrichment ratio is ≤ 0.25.
With SIEQ, the enrichment ratio was ≤ 0.25.
In the case of VKER, the enrichment ratio is ≤ 0.25.
HIKA: the enrichment ratio is ≤ 0.25.
On to MHRD, for which the enrichment ratio is ≤ 0.25.
Consider INFF, for which the enrichment ratio is ≤ 0.25.
As to FLDW, the enrichment ratio was ≤ 0.25.
For ADTI, the enrichment ratio was ≤ 0.25.
For the variant RKVL, the enrichment ratio was ≤ 0.25.
With MNRR, the enrichment ratio is ≤ 0.25.
In the case of AVMP, the enrichment ratio was 0.383.
As to QNHE, the enrichment ratio was ≤ 0.25.
As for DVKP, the enrichment ratio was ≤ 0.25.
Take NYNV: the enrichment ratio was ≤ 0.25.
Regarding TEMP, the enrichment ratio was ≤ 0.25.
As for VWSW, the enrichment ratio is ≤ 0.25.
As to WNTC, the enrichment ratio is ≤ 0.25.
WIYA: the enrichment ratio was ≤ 0.25.
Regarding HKPQ, the enrichment ratio was ≤ 0.25.
Turning to LRNN, the enrichment ratio was ≤ 0.25.
For the variant QVTW, the enrichment ratio is ≤ 0.25.
For MVNF, the enrichment ratio was 4.62.
As for ARER, the figure is ≤ 0.25.
As for IANF, the figure is ≤ 0.25; as for LDEV, ≤ 0.25; as for GRSM, ≤ 0.25.
For QHSC, the enrichment ratio is ≤ 0.25.
To LTAV belongs ≤ 0.25; to WNAD, ≤ 0.25.
Regarding YDTS, the enrichment ratio is ≤ 0.25.
To TTVV belongs 2.55; to EREI, ≤ 0.25; to QLAN, ≤ 0.25.
As for TNCS, the enrichment ratio is 0.621.
Regarding WVLC, the enrichment ratio was ≤ 0.25.
Regarding ATHI, the enrichment ratio is ≤ 0.25.
With KHGT, the enrichment ratio is ≤ 0.25.
As for ATGF, the figure is 7.16; as for DFDL, ≤ 0.25; as for DKLH, ≤ 0.25.
Take EETI: the enrichment ratio is ≤ 0.25.
In the case of RSHK, the enrichment ratio was ≤ 0.25.
As for SGCC, the figure is 14.2; as for AIEP, ≤ 0.25; as for YMYP, ≤ 0.25.
As for VSVN, the figure is ≤ 0.25.
Take RGMW: the enrichment ratio was ≤ 0.25.
To WDDQ belongs ≤ 0.25.
In the case of QSFT, the enrichment ratio was 6.28.
Consider TFLV, for which the enrichment ratio is ≤ 0.25.
Take QIQK: the enrichment ratio is ≤ 0.25.
As to LDQP, the enrichment ratio is ≤ 0.25.
As for LVFT, the enrichment ratio is ≤ 0.25.
Take DYCI: the enrichment ratio is ≤ 0.25.
For HSWD, the enrichment ratio is ≤ 0.25.
For the variant VYMS, the enrichment ratio was ≤ 0.25.
Regarding MHKK, the enrichment ratio was ≤ 0.25.
To SINP belongs ≤ 0.25.
For the variant PHFH, the enrichment ratio is ≤ 0.25.
As for MKTV, the figure is ≤ 0.25; as for PGCE, ≤ 0.25; as for NLQI, ≤ 0.25.
As to ESDE, the enrichment ratio was ≤ 0.25.
Turning to RLFH, the enrichment ratio was ≤ 0.25.
Regarding SEHD, the enrichment ratio is ≤ 0.25.
As for SVAQ, the enrichment ratio came out at 7.86.
To NCFQ belongs ≤ 0.25; to KNVC, ≤ 0.25; to HYYM, ≤ 0.25.
Regarding QDRR, the enrichment ratio was ≤ 0.25.
Turning to QHPW, the enrichment ratio was ≤ 0.25.
To KVGC belongs ≤ 0.25.
As for HEIW, the figure is ≤ 0.25; as for ITGM, ≤ 0.25.
As for LQIN, the enrichment ratio is ≤ 0.25.
To FHWR belongs ≤ 0.25.
With QHMA, the enrichment ratio was ≤ 0.25.
In the case of FEQS, the enrichment ratio is ≤ 0.25.
Consider KLQQ, for which the enrichment ratio was ≤ 0.25.
For QNSC, the enrichment ratio is ≤ 0.25.
In the case of TSQI, the enrichment ratio was 9.84.
Take QEGH: the enrichment ratio was found to be 24.6.
On to APMI, for which the enrichment ratio was ≤ 0.25.
Turning to MYHM, the enrichment ratio was ≤ 0.25.
As for NQLI, the enrichment ratio was ≤ 0.25.
Regarding EENA, the enrichment ratio is ≤ 0.25.
To FGIH belongs ≤ 0.25; to AESV, 14.8.
For the variant GNMM, the enrichment ratio was found to be 0.333.
Regarding DMQR, the enrichment ratio was ≤ 0.25.
As for NAQR, the enrichment ratio was ≤ 0.25.
For the variant HYWW, the enrichment ratio was ≤ 0.25.
As for WDED, the figure is ≤ 0.25.
As for MLEE, the figure is ≤ 0.25.
Regarding FFMC, the enrichment ratio was ≤ 0.25.
PWSR: the enrichment ratio is ≤ 0.25.
With VLGK, the enrichment ratio is ≤ 0.25.
To LTWM belongs ≤ 0.25; to IGCF, ≤ 0.25; to KNKL, ≤ 0.25.
As to YLHS, the enrichment ratio was ≤ 0.25.
As for INLK, the enrichment ratio was ≤ 0.25.
As for RAEY, the enrichment ratio was ≤ 0.25.
As for SHGS, the figure is ≤ 0.25; as for PMCF, ≤ 0.25.
QIQH: the enrichment ratio was ≤ 0.25.
In the case of PQPQ, the enrichment ratio was ≤ 0.25.
To STDY belongs ≤ 0.25.
Take DLWP: the enrichment ratio was ≤ 0.25.
To QCDC belongs ≤ 0.25.
In the case of GELT, the enrichment ratio worked out at 11.2.
For INTY, the enrichment ratio worked out at 0.258.
On to SQYK, for which the enrichment ratio was ≤ 0.25.
Regarding RFYD, the enrichment ratio is ≤ 0.25.
Take EHFH: the enrichment ratio was ≤ 0.25.
Turning to KGEV, the enrichment ratio is ≤ 0.25.
As for DWKQ, the enrichment ratio is ≤ 0.25.
As to FFFV, the enrichment ratio was ≤ 0.25.
With DYHH, the enrichment ratio was ≤ 0.25.
As for KTDT, the enrichment ratio is ≤ 0.25.
Regarding RHMD, the enrichment ratio is ≤ 0.25.
As for YAMS, the enrichment ratio was ≤ 0.25.
As for DKLV, the figure is ≤ 0.25; as for YNAD, ≤ 0.25; as for DRME, ≤ 0.25.
For the variant RDSG, the enrichment ratio was ≤ 0.25.
Regarding WEHI, the enrichment ratio is ≤ 0.25.
With VGKV, the enrichment ratio is ≤ 0.25.
Consider SKKL, for which the enrichment ratio was ≤ 0.25.
With TNQA, the enrichment ratio amounted to 8.91.
As for HYKD, the figure is ≤ 0.25; as for QCHI, ≤ 0.25.
As to THCF, the enrichment ratio was 17.5.
For the variant QFFC, the enrichment ratio was ≤ 0.25.
DTAW: the enrichment ratio was ≤ 0.25.
Turning to PKHS, the enrichment ratio is ≤ 0.25.
As for WAYD, the enrichment ratio is ≤ 0.25.
As to HNLI, the enrichment ratio was ≤ 0.25.
In the case of IKIY, the enrichment ratio was ≤ 0.25.
GHFA: the enrichment ratio was ≤ 0.25.
In the case of IWEP, the enrichment ratio is ≤ 0.25.
With MTEH, the enrichment ratio was ≤ 0.25.
Regarding FSKR, the enrichment ratio is ≤ 0.25.
As for RMSV, the enrichment ratio is ≤ 0.25.
On to VHHV, for which the enrichment ratio was ≤ 0.25.
As for SGVK, the figure is ≤ 0.25; as for IELE, ≤ 0.25; as for AGHS, ≤ 0.25.
As for VLVW, the enrichment ratio was ≤ 0.25.
On to HEEI, for which the enrichment ratio was ≤ 0.25.
